Laboratory results: the supplement of paper PMC4166925
± gives the standard deviation of the averaged measurements. Over roughly 33,000 sequences, “E-score (dimensionless, -0.5 to 0.5)” has its median near -0.049; the highest 2% begin near 0.37. The list shows a part of the results.

The sequences below were run on T1, PmTbr T-box DNA-binding domain (GST fusion) (assay: PBM E-score of 8-mer (E-score (dimensionless, -0.5 to 0.5)); Tbr is Tbrain of the sea star Patiria miniata (Pm) or the sea urchin Strongylocentrotus purpuratus (Sp); higher = stronger binding preference; most listed sequences are background and not binding sites). Conditions: the construct has about 5 more residues each side.
T1 sequence: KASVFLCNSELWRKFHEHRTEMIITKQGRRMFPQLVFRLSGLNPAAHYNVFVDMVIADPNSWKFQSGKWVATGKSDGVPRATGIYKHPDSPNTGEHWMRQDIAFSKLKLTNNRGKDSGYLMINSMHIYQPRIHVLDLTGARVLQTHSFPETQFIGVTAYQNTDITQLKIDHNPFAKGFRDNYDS
Method: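 Universal protein-binding microarray (Agilent AMADID 016060, 60-bp probes with a 35-bp variable region) incubated with 200 nM GST-fused Patiria miniata Tbr T-box DNA-binding domain (residues 272-466) in PBS pH 7.5. Scored for every ungapped 8-mer (given with its reverse complement) by the Universal PBM Analysis Suite as E-score (modified Wilcoxon-Mann-Whitney enrichment, range -0.5 to 0.5; >0.45 counts as bound) and Z-score of median probe intensity. Two replicate arrays (datasets 1 and 2).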

Sequence	PBM E-score of 8-mer
TAAAAGTA	-0.268 ± 0.1
ATGGCCCA	-0.141 ± 0.031
GATTTCAA	-0.162 ± 0.0023
TGATAAAA	0.237 ± 0.13
ATGATTAG	0.0104 ± 0.0076
ATAGGACG	-0.393 ± 0.058
GGCTACCA	-0.118 ± 0.057
AGCCACCT	0.147 ± 0.0018
CGTTACGA	-0.02191 ± 3.5e-05
GCATGCGA	-0.068 ± 0.09
GCCGTGAC	0.159 ± 0.059
GGTTCTGA	-0.248 ± 0.0068
CGGAGCAA	-0.16 ± 0.062
CTCTTACA	-0.0415 ± 0.056
CGGATCTA	-0.106 ± 0.064
ATGTAAAC	-0.0081 ± 0.034
ACACGCCA	0.229 ± 0.044
ACTCCCGC	0.103 ± 0.015
GTTCGCCA	0.0565 ± 0.041
AAAGGACT	-0.249 ± 0.057
GCCCGCAA	-0.0729 ± 0.021
CATCAAAA	-0.139 ± 0.11
ACAGATAT	0.0285 ± 0.11
AAACTAAG	-0.159 ± 0.016
ACGTTTCG	0.243 ± 0.043

Sequence	PBM E-score of 8-mer
ATCATCAT	-0.128 ± 0.0047
GAATAGGA	-0.106 ± 0.0079
ACTAAAAC	-0.11 ± 0.062
TACGAAAA	-0.0185 ± 0.0061
AGCTGTCC	0.0286 ± 0.0092
GGGTGTCA	0.472 ± 0.0071
AGAGTTTG	-0.0142 ± 0.079
TACGCCTA	0.129 ± 0.025
CGTCACCA	0.27 ± 0.054
AAACCTGC	-0.00686 ± 0.067
CCCCGACC	-0.11 ± 0.008
CGGCAACA	0.148 ± 0.0064
AATAATGC	-0.0339 ± 0.11
TAGAGCGA	-0.0269 ± 0.063
CGGGACGA	-0.26 ± 0.016
ACTTAAGC	0.0905 ± 0.0083
AAAAAGAG	-0.235 ± 0.028
AGACCGAG	-0.214 ± 0.024
GCGAATAA	0.238 ± 0.0033
AAGTCCAG	-0.236 ± 0.0018
CCAGGGCC	-0.00681 ± 0.087
GGAATGGA	-0.271 ± 0.077
ACGATAAG	0.205 ± 0.036
AATTCTAC	-0.139 ± 0.052
GCTTGCAA	0.0978 ± 0.046

Sequence	PBM E-score of 8-mer
TAATCTCA	0.11 ± 0.046
ACGGGCTA	-0.226 ± 0.043
CTTCTGAA	-0.105 ± 0.042
CCGCGACG	0.0481 ± 0.087
ACATGGCG	0.0665 ± 0.025
ATAGGTAG	0.0524 ± 0.071
AAGTTAAA	0.04 ± 0.038
CGGCATTC	-0.0164 ± 0.088
GGACAAAA	-0.0744 ± 0.068
GGGGTATA	-0.299 ± 0.038
ATGCACCC	0.0287 ± 0.023
AGCCCACA	0.0138 ± 0.12
ACATGGAC	0.164 ± 0.12
CACTCGAC	0.12 ± 0.03
CTGGGAAG	0.0251 ± 0.014
AAAGGGCC	-0.414 ± 0.013
CAAATGTC	0.0249 ± 0.12
TCATTTCA	0.111 ± 0.074
CTGAGAAC	-0.052 ± 0.016
ATTGGCGC	0.242 ± 0.0091
ACATTCTA	-0.147 ± 0.022
AACCGTGC	0.0615 ± 0.0091
CCAATAGA	-0.0941 ± 0.052
CGATACCA	-0.00089 ± 0.011
GGGTATAA	-0.106 ± 0.049

Sequence	PBM E-score of 8-mer
CTGACTAA	0.0252 ± 0.0089
CGGTAGCC	-0.275 ± 0.031
GAAGAATC	-0.0293 ± 0.092
CTGTATCA	-0.209 ± 0.032
ATTGTTGG	-0.0492 ± 0.03
AGTGGGAA	0.175 ± 0.0032
CACTCTGA	0.0843 ± 0.094
CAGTTCGA	-0.0617 ± 0.038
GACTACCA	-0.0358 ± 0.082
CCGGGTAA	-0.112 ± 0.058
GAGGCTGC	-0.122 ± 0.048
CGAGCCCC	0.0194 ± 0.015
AGCACTAG	-0.167 ± 0.018
GCAGATAC	-0.135 ± 0.035
CTGATATA	-0.0707 ± 0.018
GTTCATCA	-0.0322 ± 0.044
CGATCACC	0.0573 ± 0.022
ACGACTCT	-0.0693 ± 0.011
CTGCGAAA	0.368 ± 0.0074
AGCTGACT	-0.149 ± 0.049
CTGTAGTA	-0.232 ± 0.056
CATCTGGA	-0.0451 ± 0.068
CCGGCGTA	-0.135 ± 0.062
GATTTTTA	-0.12 ± 0.11
CCTTCGAG	0.0506 ± 0.051

Sequence	PBM E-score of 8-mer
AACGTGCA	0.0842 ± 0.061
GATAGCCC	-0.196 ± 0.047
ACGCAACT	-0.0771 ± 0.13
CTTGGATC	-0.128 ± 0.0099
CGGTGGAA	-0.151 ± 0.008
AGGGAAAG	-0.118 ± 0.02
GAAGATAA	-0.0534 ± 0.046
CAAGTCAG	-0.0747 ± 0.087
AACTTAAG	-0.124 ± 0.039
GAACTGCC	-0.0593 ± 0.032
ATGGAGTC	-0.159 ± 0.0025
GACCGATA	-0.0823 ± 0.0091
ATCTGCGA	0.139 ± 0.029
CCCGATCG	-0.177 ± 0.02
ACTGTGGA	-0.0904 ± 0.087
AGGGAGGA	-0.3317 ± 0.00035
GATCCGCC	-0.139 ± 0.043
CGCCTGAC	0.131 ± 0.037
GTCGAGCA	-0.045 ± 0.037
ATTCCCTG	-0.117 ± 0.028
GTAGCTAC	-0.4 ± 0.032
CCGCCTAG	-0.0558 ± 0.09
AATGGTCC	-0.281 ± 0.014
AGCAGTAG	-0.0991 ± 0.011
AAGCGCAA	0.0876 ± 0.052

Sequence	PBM E-score of 8-mer
AGACCAGA	-0.229 ± 0.068
ATTGCTAA	0.1815 ± 0.0012
CACATTAG	0.261 ± 0.016
CGGAACTA	-0.0825 ± 0.011
GGATATCC	-0.1072 ± 0.00017
AGACGACT	-0.237 ± 0.059
GAATATCC	-0.274 ± 0.066
CGTTAGAA	-0.0209 ± 0.054
ACTTCCTA	0.00936 ± 0.068
AGCGCGTC	0.215 ± 0.034
ACACTAAA	0.177 ± 0.055
GCAGCACC	0.258 ± 0.032
CTGGGTCC	-0.0854 ± 0.066
CCATGTCC	-0.36 ± 0.015
GGCCGCAA	-0.0658 ± 0.058
CGAACGTA	-0.0181 ± 0.0094
AATGTCGT	-0.00733 ± 0.0032
ACGGACCC	-0.108 ± 0.015
GCGAACCC	0.15 ± 0.039
AGAAAACT	-0.127 ± 0.15
AGAGACAC	0.124 ± 0.026
ACGTAAAT	-0.0451 ± 0.033
AGCCCGGA	-0.3 ± 0.021
CATATTGA	-0.0595 ± 0.011
CAAACGCA	-0.086 ± 0.0022

Sequence	PBM E-score of 8-mer
CATTGGAG	-0.0404 ± 0.075
CGGTGCTA	0.321 ± 0.0088
CATCTAAC	0.0827 ± 0.038
GTAACTAA	-0.275 ± 0.031
CGGGTGCA	0.136 ± 0.024
CAGTGGGC	-0.0573 ± 0.025
CAATGGCC	-0.115 ± 0.0065
CCCCTGCA	-0.125 ± 0.044
GACATCAC	0.167 ± 0.021
AATGACTC	-0.0348 ± 0.078
GACTTGCC	0.189 ± 0.016
AATGACAG	0.0032 ± 0.088
ACAAGAGA	-0.0905 ± 0.018
ATACATTC	-0.0803 ± 0.0088
CTAGGCAA	-0.137 ± 0.05
CATCACGA	-0.008 ± 0.1
CTCTGTCC	-0.14 ± 0.021
AACGTGGG	0.165 ± 0.045
CAATGTTC	-0.00709 ± 0.021
CCTCTCGA	0.152 ± 0.018
AGCATCCG	-0.0104 ± 0.039
ATGCTCTG	-0.142 ± 0.0066
